Reference: patent US20170368082A1, “FORMULATIONS OF BRINCIDOFOVIR” (priority 2016, published 2017)
This continues a long series; more values of the same kind are listed elsewhere.

Experiment: Tissue distribution by quantitative whole-body autoradiography (QWBA)
Format: in vivo, male Sprague Dawley and Long-Evans rats
Details: 15 mg/kg IV
Protocol: The study utilized 4 groups of male SD rats (albino), and 3 groups of male LE rats (pigmented); a total of 39 rats. All animals were obtained from Hilltop Lab Animals, Inc. (Scottdale, Pa.). […] Rats in Group 5 were administered a single 2-h IV infusion of [^14C]brincidofovir at a target dose of 2 mg/kg. […] Three dosing formulations (one for high dose IV, one for low dose IV, and one for PO dose) were prepared at QPS on the day of dosing. The IV formulation for Groups 1, 2, 3, and 4 contained a vehicle of 10 mM sodium phosphate buffer in 5% dextrose solution at pH 8.0(±0.1).
Each animal, at their respective termination time points, was euthanized for QWBA analysis immediately after blood collection. One rat per time point per Group was euthanized as listed below.
The blood samples were maintained on wet ice (approximately 4° C.) and then centrifuged to obtain plasma within 1 h of the blood collection time. Centrifuge settings were recorded in the study notebook. Duplicate aliquots of plasma (0.050 mL) were analyzed for radioactivity using direct counting by LSC, and residual plasma was stored at approximately −70° C. and was saved for possible future analysis under a separate study protocol. Residual red blood cells were discarded as radioactive waste.
The pinna, distal limbs, hair, and tail were removed from each frozen carcass and each frozen carcass was embedded in an aqueous suspension of approximately 2% (w/v) carboxymethylcellulose and frozen into a block. The blocks were stored at approximately −20° C. prior to sectioning. Each blocked carcass was mounted on the object stage of a cryomicrotome (Leica CM3600 Cryomacrocut, Nussloch, Germany and Vibratome 9800, St. Louis, Mo.) maintained at approximately −20° C. and internal standards (3), which were plasma fortified with [^14C]-glucose at one concentration (approximately 0.05 μCi/mL), were placed into the frozen blocks, prior to sectioning, and were used for section thickness quality control. A number of whole-body sections (approximately 40 μm thick) were taken in the sagittal plane at various levels of interest using a whole-body cryomicrotome set at −20° C. Sagittal sections (20-50 μm thick) of frozen carcasses were exposed to phosphor imaging plates. Regions of images in tissues were converted to concentrations using standards. All of the major tissues, organs, and biological fluids were represented.
Tissue concentration data was determined for the following tissues and/or contents: adipose (brown and white), adrenal gland, bile (in duct), blood (cardiac), bone, bone marrow, brain (cerebrum, cerebellum, medulla), cecum (and contents), large intestine (and contents), epididymis, esophagus, eye (uvea and lens), Harderian gland, heart, kidney (cortex and medulla), liver, lung, lymph node, pancreas, pituitary gland, prostate gland, salivary gland, seminal vesicles, skeletal muscle, skin (pigmented and non-pigmented), small intestine (and contents), stomach (gastric mucosa and contents), spleen, spinal cord, testis, thymus, thyroid, and urinary bladder (and contents).
The imaging plate and sections were placed in light-tight exposure cassettes, in a copper-lined lead safe, for a 4-day exposure at room temperature. […] Quantification was performed by image densitometry using MCD image analysis software (v. 7.0, Interfocus Imaging Ltd) and a standard curve constructed from the integrated response [i.e., Molecular Dynamics Counts per square millimeter (MDC/mm^2)] and the nominal concentrations of the ^14C-calibration standards. The concentrations of radioactivity were expressed as the μg equivalents of [^14C]brincidofovir per gram sample (μg equiv/g). A lower limit of quantification (LLOQ) was applied to the data (See section 6.7.4).
Tissue concentrations that fell below the LLOQ were identified as being below the quantification limit (BQL). Tissue areas that were not visualized on autoradiographic images were identified as no sample (NS) and reported as BQL.

CCCCCCCCCCCCCCCCOCCCOP(=O)(O)CO[C@H](CO)Cn1ccc(N)nc1=O [[^14C]brincidofovir]
Concentration of radioactivity (Adipose (brown), 1 h, LE rat): 0.839 μg equiv/g tissue | Concentration of radioactivity (Adipose (brown), 2 h, LE rat): 1.680 μg equiv/g tissue | Concentration of radioactivity (Adipose (brown), 4 h, LE rat): 1.123 μg equiv/g tissue | Concentration of radioactivity (Adipose (brown), 8 h, LE rat): 0.755 μg equiv/g tissue | Concentration of radioactivity (Adipose (brown), 24 h, LE rat): 0.306 μg equiv/g tissue | Concentration of radioactivity (Adipose (brown), 72 h, LE rat): 0.402 μg equiv/g tissue | Concentration of radioactivity (Adipose (brown), 96 h, LE rat): 0.187 μg equiv/g tissue | Concentration of radioactivity (Adipose (brown), 168 h, LE rat): 0.132 μg equiv/g tissue | Concentration of radioactivity (Adipose (brown), 840 h, LE rat): BQL (BQL = Value is below the LLOQ) | Concentration of radioactivity (Adipose (white), 1 h, LE rat): 0.369 μg equiv/g tissue | Concentration of radioactivity (Adipose (white), 2 h, LE rat): 0.365 μg equiv/g tissue | Concentration of radioactivity (Adipose (white), 4 h, LE rat): 0.317 μg equiv/g tissue | Concentration of radioactivity (Adipose (white), 8 h, LE rat): 0.124 μg equiv/g tissue | Concentration of radioactivity (Adipose (white), 24 h, LE rat): 0.058 μg equiv/g tissue | Concentration of radioactivity (Adipose (white), 72 h, LE rat): 0.062 μg equiv/g tissue | Concentration of radioactivity (Adipose (white), 96 h, LE rat): BQL (BQL = Value is below the LLOQ) | Concentration of radioactivity (Adipose (white), 168 h, LE rat): BQL (BQL = Value is below the LLOQ) | Concentration of radioactivity (Adipose (white), 840 h, LE rat): BQL (BQL = Value is below the LLOQ) | Concentration of radioactivity (Adrenal Gland, 1 h, LE rat): 2.523 μg equiv/g tissue | Concentration of radioactivity (Adrenal Gland, 2 h, LE rat): 4.802 μg equiv/g tissue | Concentration of radioactivity (Adrenal Gland, 4 h, LE rat): 3.282 μg equiv/g tissue | Concentration of radioactivity (Adrenal Gland, 8 h, LE rat): 3.179 μg equiv/g tissue | Concentration of radioactivity (Adrenal Gland, 24 h, LE rat): 1.253 μg equiv/g tissue | Concentration of radioactivity (Adrenal Gland, 72 h, LE rat): 1.186 μg equiv/g tissue | Concentration of radioactivity (Adrenal Gland, 96 h, LE rat): 0.776 μg equiv/g tissue | Concentration of radioactivity (Adrenal Gland, 168 h, LE rat): 0.490 μg equiv/g tissue | Concentration of radioactivity (Adrenal Gland, 840 h, LE rat): 0.091 μg equiv/g tissue | Concentration of radioactivity (Bile (in duct), 1 h, LE rat): 243.705 μg equiv/g tissue | Concentration of radioactivity (Bile (in duct), 2 h, LE rat): 508.358 μg equiv/g tissue | Concentration of radioactivity (Bile (in duct), 4 h, LE rat): 178.597 μg equiv/g tissue | Concentration of radioactivity (Bile (in duct), 8 h, LE rat): BQL (BQL = Value is below the LLOQ) | Concentration of radioactivity (Bile (in duct), 24 h, LE rat): 1.010 μg equiv/g tissue | Concentration of radioactivity (Bile (in duct), 72 h, LE rat): 0.526 μg equiv/g tissue | Concentration of radioactivity (Bile (in duct), 96 h, LE rat): 0.044 μg equiv/g tissue | Concentration of radioactivity (Bile (in duct), 168 h, LE rat): BQL (BQL = Value is below the LLOQ) | Concentration of radioactivity (Bile (in duct), 840 h, LE rat): BQL (BQL = Value is below the LLOQ) | Concentration of radioactivity (Blood (cardiac), 1 h, LE rat): 3.040 μg equiv/g tissue | Concentration of radioactivity (Blood (cardiac), 2 h, LE rat): 5.291 μg equiv/g tissue | Concentration of radioactivity (Blood (cardiac), 4 h, LE rat): 2.839 μg equiv/g tissue | Concentration of radioactivity (Blood (cardiac), 8 h, LE rat): 1.679 μg equiv/g tissue | Concentration of radioactivity (Blood (cardiac), 24 h, LE rat): 0.225 μg equiv/g tissue | Concentration of radioactivity (Blood (cardiac), 72 h, LE rat): 0.052 μg equiv/g tissue | Concentration of radioactivity (Blood (cardiac), 96 h, LE rat): BQL (BQL = Value is below the LLOQ) | Concentration of radioactivity (Blood (cardiac), 168 h, LE rat): BQL (BQL = Value is below the LLOQ) | Concentration of radioactivity (Blood (cardiac), 840 h, LE rat): BQL (BQL = Value is below the LLOQ) | Concentration of radioactivity (Bone Marrow, 1 h, LE rat): 1.464 μg equiv/g tissue | Concentration of radioactivity (Bone Marrow, 2 h, LE rat): 3.348 μg equiv/g tissue | Concentration of radioactivity (Bone Marrow, 4 h, LE rat): 2.550 μg equiv/g tissue | Concentration of radioactivity (Bone Marrow, 8 h, LE rat): 2.045 μg equiv/g tissue | Concentration of radioactivity (Bone Marrow, 24 h, LE rat): 0.898 μg equiv/g tissue | Concentration of radioactivity (Bone Marrow, 72 h, LE rat): 0.552 μg equiv/g tissue | Concentration of radioactivity (Bone Marrow, 96 h, LE rat): 0.280 μg equiv/g tissue | Concentration of radioactivity (Bone Marrow, 168 h, LE rat): 0.232 μg equiv/g tissue | Concentration of radioactivity (Bone Marrow, 840 h, LE rat): 0.043 μg equiv/g tissue | Concentration of radioactivity (Bone, 1 h, LE rat): 0.130 μg equiv/g tissue | Concentration of radioactivity (Bone, 2 h, LE rat): 0.257 μg equiv/g tissue | Concentration of radioactivity (Bone, 4 h, LE rat): 0.183 μg equiv/g tissue | Concentration of radioactivity (Bone, 8 h, LE rat): 0.190 μg equiv/g tissue | Concentration of radioactivity (Bone, 24 h, LE rat): BQL (BQL = Value is below the LLOQ) | Concentration of radioactivity (Bone, 72 h, LE rat): 0.036 μg equiv/g tissue | Concentration of radioactivity (Bone, 96 h, LE rat): 0.040 μg equiv/g tissue | Concentration of radioactivity (Bone, 168 h, LE rat): BQL (BQL = Value is below the LLOQ) | Concentration of radioactivity (Bone, 840 h, LE rat): BQL (BQL = Value is below the LLOQ) | Concentration of radioactivity (Brain (cerebellum), 1 h, LE rat): 0.569 μg equiv/g tissue | Concentration of radioactivity (Brain (cerebellum), 2 h, LE rat): 1.144 μg equiv/g tissue | Concentration of radioactivity (Brain (cerebellum), 4 h, LE rat): 0.422 μg equiv/g tissue | Concentration of radioactivity (Brain (cerebellum), 8 h, LE rat): 0.284 μg equiv/g tissue | Concentration of radioactivity (Brain (cerebellum), 24 h, LE rat): 0.099 μg equiv/g tissue | Concentration of radioactivity (Brain (cerebellum), 72 h, LE rat): 0.073 μg equiv/g tissue | Concentration of radioactivity (Brain (cerebellum), 96 h, LE rat): BQL (BQL = Value is below the LLOQ) | Concentration of radioactivity (Brain (cerebellum), 168 h, LE rat): BQL (BQL = Value is below the LLOQ) | Concentration of radioactivity (Brain (cerebellum), 840 h, LE rat): BQL (BQL = Value is below the LLOQ) | Concentration of radioactivity (Brain (cerebrum), 1 h, LE rat): 0.391 μg equiv/g tissue | Concentration of radioactivity (Brain (cerebrum), 2 h, LE rat): 0.887 μg equiv/g tissue | Concentration of radioactivity (Brain (cerebrum), 4 h, LE rat): 0.341 μg equiv/g tissue | Concentration of radioactivity (Brain (cerebrum), 8 h, LE rat): 0.196 μg equiv/g tissue | Concentration of radioactivity (Brain (cerebrum), 24 h, LE rat): 0.070 μg equiv/g tissue | Concentration of radioactivity (Brain (cerebrum), 72 h, LE rat): 0.062 μg equiv/g tissue | Concentration of radioactivity (Brain (cerebrum), 96 h, LE rat): BQL (BQL = Value is below the LLOQ) | Concentration of radioactivity (Brain (cerebrum), 168 h, LE rat): BQL (BQL = Value is below the LLOQ) | Concentration of radioactivity (Brain (cerebrum), 840 h, LE rat): BQL (BQL = Value is below the LLOQ) | Concentration of radioactivity (Brain (medulla), 1 h, LE rat): 0.498 μg equiv/g tissue | Concentration of radioactivity (Brain (medulla), 2 h, LE rat): 0.858 μg equiv/g tissue | Concentration of radioactivity (Brain (medulla), 4 h, LE rat): 0.376 μg equiv/g tissue | Concentration of radioactivity (Brain (medulla), 8 h, LE rat): 0.199 μg equiv/g tissue | Concentration of radioactivity (Brain (medulla), 24 h, LE rat): 0.085 μg equiv/g tissue | Concentration of radioactivity (Brain (medulla), 72 h, LE rat): 0.059 μg equiv/g tissue | Concentration of radioactivity (Brain (medulla), 96 h, LE rat): BQL (BQL = Value is below the LLOQ) | Concentration of radioactivity (Brain (medulla), 168 h, LE rat): BQL (BQL = Value is below the LLOQ) | Concentration of radioactivity (Brain (medulla), 840 h, LE rat): BQL (BQL = Value is below the LLOQ) | Concentration of radioactivity (Cecum (contents), 1 h, LE rat): 0.099 μg equiv/g tissue | Concentration of radioactivity (Cecum (contents), 2 h, LE rat): 1.065 μg equiv/g tissue | Concentration of radioactivity (Cecum (contents), 4 h, LE rat): 42.166 μg equiv/g tissue | Concentration of radioactivity (Cecum (contents), 8 h, LE rat): 175.858 μg equiv/g tissue | Concentration of radioactivity (Cecum (contents), 24 h, LE rat): 30.022 μg equiv/g tissue | Concentration of radioactivity (Cecum (contents), 72 h, LE rat): 1.987 μg equiv/g tissue | Concentration of radioactivity (Cecum (contents), 96 h, LE rat): 0.159 μg equiv/g tissue | Concentration of radioactivity (Cecum (contents), 168 h, LE rat): 0.123 μg equiv/g tissue | Concentration of radioactivity (Cecum (contents), 168 h, SD rat): 0.196 μg equiv./g | Concentration of radioactivity (Cecum (contents), 840 h, LE rat): BQL (BQL = Value is below the LLOQ) | Concentration of radioactivity (Cecum, 1 h, LE rat): 1.781 μg equiv/g tissue | Concentration of radioactivity (Cecum, 2 h, LE rat): 3.052 μg equiv/g tissue | Concentration of radioactivity (Cecum, 4 h, LE rat): 2.443 μg equiv/g tissue | Concentration of radioactivity (Cecum, 8 h, LE rat): 6.189 μg equiv/g tissue | Concentration of radioactivity (Cecum, 24 h, LE rat): 7.077 μg equiv/g tissue | Concentration of radioactivity (Cecum, 72 h, LE rat): 0.527 μg equiv/g tissue | Concentration of radioactivity (Cecum, 96 h, LE rat): 0.208 μg equiv/g tissue | Concentration of radioactivity (Cecum, 168 h, LE rat): 0.080 μg equiv/g tissue | Concentration of radioactivity (Cecum, 840 h, LE rat): BQL (BQL = Value is below the LLOQ)
